Laboratory results taken from publication PMC6386420.
No constants are given. Whether binding was seen depends on the method and setting. In cells and extracts the contact can be indirect. Some results given as binding are weak or reduced against the parent protein; the word gives no strength. Sequences can lack the tags named with a protein.

Protein sequences, listed by entry. Tags and fused reporters are not part of them.
UniProt P63104: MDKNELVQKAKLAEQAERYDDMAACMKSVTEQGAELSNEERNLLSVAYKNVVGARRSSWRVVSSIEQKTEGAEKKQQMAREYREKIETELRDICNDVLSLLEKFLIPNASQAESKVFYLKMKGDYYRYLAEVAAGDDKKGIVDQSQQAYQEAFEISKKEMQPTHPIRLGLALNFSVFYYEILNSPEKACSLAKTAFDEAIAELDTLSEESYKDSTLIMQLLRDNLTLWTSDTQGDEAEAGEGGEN

Experiments:
FLAG-N-MDA5 = target: T1, FLAG-N-MDA5 (UniProt Q9BYX4); experiment: co-IP; Huh7 cells co-transfected with FLAG-N-MDA5 or FLAG-C-MDA5 and myc-tagged 14-3-3 isoforms; anti-FLAG immunoprecipitation of lysates, immunoblot
T1 sequence: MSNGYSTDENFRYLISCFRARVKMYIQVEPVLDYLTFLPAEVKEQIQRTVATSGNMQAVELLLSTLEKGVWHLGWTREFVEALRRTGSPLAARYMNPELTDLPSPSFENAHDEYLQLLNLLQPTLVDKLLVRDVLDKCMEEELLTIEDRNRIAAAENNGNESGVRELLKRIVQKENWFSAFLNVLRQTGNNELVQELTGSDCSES

FLAG-C-MDA5 = target: T2, FLAG-C-MDA5 (UniProt Q9BYX4); experiment: as above
T2 sequence: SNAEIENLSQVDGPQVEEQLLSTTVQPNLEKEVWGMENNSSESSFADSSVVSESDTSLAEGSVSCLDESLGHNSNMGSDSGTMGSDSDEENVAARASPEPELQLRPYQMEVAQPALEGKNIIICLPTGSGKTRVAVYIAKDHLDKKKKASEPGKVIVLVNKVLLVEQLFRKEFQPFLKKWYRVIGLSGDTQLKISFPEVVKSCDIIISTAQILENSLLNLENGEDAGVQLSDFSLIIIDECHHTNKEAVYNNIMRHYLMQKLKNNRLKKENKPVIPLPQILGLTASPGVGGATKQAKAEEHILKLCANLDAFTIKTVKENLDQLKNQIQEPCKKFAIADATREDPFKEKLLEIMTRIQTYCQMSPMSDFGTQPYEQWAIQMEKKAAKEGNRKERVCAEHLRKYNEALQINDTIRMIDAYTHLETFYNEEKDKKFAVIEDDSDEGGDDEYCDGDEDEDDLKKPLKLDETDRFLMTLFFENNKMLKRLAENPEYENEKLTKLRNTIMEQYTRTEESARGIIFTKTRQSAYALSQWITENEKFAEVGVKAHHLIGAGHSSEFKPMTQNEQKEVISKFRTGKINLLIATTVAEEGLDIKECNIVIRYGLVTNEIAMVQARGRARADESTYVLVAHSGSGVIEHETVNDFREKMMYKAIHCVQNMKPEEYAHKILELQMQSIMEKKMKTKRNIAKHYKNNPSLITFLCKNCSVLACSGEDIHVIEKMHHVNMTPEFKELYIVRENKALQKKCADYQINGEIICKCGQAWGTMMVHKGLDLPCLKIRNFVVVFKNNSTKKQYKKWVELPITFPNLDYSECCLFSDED

## myc-tagged 14-3-3ζ (from UniProt P63104 1-245)
FLAG-N-MDA5
  binding: binds weakly
FLAG-C-MDA5
  binding: no binding
